Source: the supplement of paper PMC10126150
Sequences with one replicate were seen in a single cluster, so their values are uncertain.

System: ATP
Test: switch fluorescence ratio, 500 uM ATP over buffer (Cy3 cluster intensity, sum of 5 cycles each) (fold (ratio)); higher = stronger signal-on switching upon ATP binding; sequences stand for … in TCGTCGGCAGCGTCAGATGTGTATAAGAGACAGTTTTTTTTTTTTTTTTTTTTTTTTT…TC
Conditions: aptamer strand: ATP DNA aptamer (quencher-CACCTGGGGGAGTATTGCGGAGGAAGG + anchor), 100 nM annealed; ATP concentration: 500 uM; one replicate
How it was run: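 Five buffer/ATP imaging cycles were run on Cy3-labelled switching-strand clusters on a modified Illumina MiSeq flow-cell, with NaOH stripping and re-annealing between cycles. In each cycle, clusters annealed to 100 nM quencher-labelled ATP aptamer were imaged in selection buffer, then after 15 min with 500 uM ATP at 22 °C. Per cluster, the fluorescence ratio is summed target-cycle over summed buffer-cycle Cy3 intensity, averaged per switch-domain sequence. Only clusters within 100-1000 RFU were kept.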
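Further: ATP exposure 15 min at 22 °C before imaging.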

Sequence	switch fluorescence ratio
CCCGGCAACT	3.78
CTACTGGGAC	1.14
CCGGAAGATC	1.97
GACAGATCTC	0.999
AGAGAATGC	0.976
CTCCGTCGTA	1.24
ACTTAGATT	1.04
CGTAGAGAAC	1.16
GGGTCCCCTG	0.986
GCTTTAGACT	1.01
TCTAGGATGC	1.07
ACTTCTTGGT	0.996
AATCACCATA	1.04
TTACACATGT	0.987
GAACTATCA	1.03
GATAAGAGAC	1.09
TGGTGGGACC	0.997
TAACCTCGGG	0.983
ATACTTGAAA	0.977
CTGTGCAGTA	1.2
CCGTTTTTTC	1.04
ATACAAAGAC	1.03
CGTAGTATAC	5.33

Sequence	switch fluorescence ratio
GGATTTGCGC	0.95
TAATGTTGCT	0.998
TCAGTAGGTT	1.02
ACTACTCGGG	1.05
TCTTTGTTTG	1.02
GGGCCGTTAG	1.01
ACACCCGTGT	1.03
TAAAGTTCAA	1.02
ACGCAGTACC	2.98
GACATAAACG	1.01
AGTCTTTGAG	0.99
ATATACTTCC	1.99
GTGACGCTGG	1.04
CGTGGTTTTA	1.02
CCCTCTTGGT	1.09
GATACCGGTC	1.08
TGTTGTTCCC	1
TCTATAGTGA	1.03
AACTCGGGAT	1.01
GGTTCCACCG	1.07
CATGGGGACC	0.986
ATTGACAGAC	1.16
GGTCCTCATG	1.03

Sequence	switch fluorescence ratio
TTTTGTTAAC	0.991
CAAGGGTAAA	0.979
GCATTGCTTA	1.01
TAAAGTCGCT	0.966
TAGGGTCCTA	0.979
TTTGCCACC	1.02
CTTGAGGTCC	1.02
TCCTTATTCC	1.15
GCTAGCCG	1.04
TCCATGTGGA	0.993
AACGCATGCG	0.97
AAGTTAGGTG	1.08
AGCCGACATT	1.1
CAATTCTGTT	1.02
AGGGCAGATG	1
GTCGGAAACG	1.21
CGTGACTAGG	0.978
AGTCTCCTGG	0.969
TTGTCTATGG	0.981
CCGGATTTTT	1.02
CCTAATAACC	1.03
GATTGACGAG	0.932
GCCTAAGCGG	1.02

Sequence	switch fluorescence ratio
TATGTAGTG	0.984
ATAGTAAAAA	0.958
CGCTGCATCT	1.1
CCTGGCAAAA	3.18
CCGGAGGTCA	1.29
CTACGGTAC	5.15
CGCATCGCCG	1.09
TGTACCCAGG	1.05
AAGTTACCCG	1.01
CGGATGCC	1.06
ATTGACCTAC	1.43
TAAAGGCGGA	0.978
TCCTGGTTGA	1.03
TGCACCTACG	1.5
CATGGGCCCT	1.26
ATTTATGCT	0.948
TTATGAGGAT	1.02
ATATAGGAA	0.996
CCTCGGCTTT	3.09
ACCGCTTTAT	1.49
AGGTATGCGC	0.974
ACAGCTGTTG	1
TTAGCCTTGT	1.02

Sequence	switch fluorescence ratio
TTAAGTGGAG	1.02
ATCTACACAG	1.05
ATACCGGATC	1.09
GCCCCGATGC	1.22
AACGTAGCG	1.06
TCCACTGAAC	1.2
GAAAATGGGT	0.922
CATATTAATG	0.989
CAAGTCTGTG	0.922
TTCATGAATC	0.994
GCTCTGATTG	0.994
TATTGAAG	0.985
CCGTTTAAGG	1
TCGTGCTCTA	0.996
GAGATGTTGA	0.961
GATTTGTGAG	1
GCGTCAATCG	1.02
AAGGGCTCGC	0.976
CCGTTCTAGT	0.998
CAATGGAGCG	1.08
AGTAAGCTAA	0.964
GCCTATTACA	1
TACGCGTTCT	1.01

Sequence	switch fluorescence ratio
TCGTGCACCG	0.978
AAAAGCGTGA	1
CGTGTGGCGC	0.936
AGTCCGGCCG	0.983
CTTTGGTCGT	0.929
AATTCTCGAC	1.03
CTAATCCTTC	1.13
ATGTTAACCA	1.04
CTTCCAAGCT	2.65
TCCTGCTCGT	1.02
ACTTGAAAAA	0.952
CAGAGTACTG	1.01
TTGTCGTAAT	1.02
ATCTCAGTG	1.03
AGAAGGAAGC	0.996
CGGATGCGTA	1.04
TCGTGTCTTT	0.993
CCCGGGCACT	1.05
TAGTTAGTCT	1.01
TCCGCTTGGG	1.21
CGACCCTTCA	1.57
CTGTGCATAT	1.62
CATTATATCA	1.02

Sequence	switch fluorescence ratio
CACTGGAACG	0.958
TGTGTTGTAC	1.03
GCCATTCAAT	1.01
TTTAAAACAT	1.24
CGCGTCCAAA	0.969
GTTATCATTG	0.998
CATGCTATAT	1.03
TTTCACGCTA	1.35
GGGTGGAGAG	0.965
ACATTCTCGG	1.01
GTATCCACGG	1.07
GCTTTCAGTG	0.975
TGGTATACAT	1.01
TCGCTCAACA	0.982
GATGTGATCG	1.05
AAATTAACAC	1.04
TGGGACTTGT	0.968
ACTACTGCAC	1.74
GGGTTACTTT	1.01
